Reference: ChEMBL document CHEMBL4888484, “Replenishing the malaria drug discovery pipeline: Screening and hit evaluation of the MMV Hit Generation Library 1 (HGL1) against asexual blood stage Plasmodium falciparum ,using a nano luciferase reporter read-out” (2022)
In all, about 150,000 compounds went through this assay and about 540 (0.36%) showed an effect of 50% or more. The list shows a part of the results.

tested on: Plasmodium falciparum; assay: Primary screen in NF54 nanoGlo assay, in single point, at 2uM, 72h; a lower Z score goes with more inhibition; type: functional, Erythrocyte; conditions: timepoint 72 hour

Compound | % Inhibition | Z score
O=C(Cc1ccc(Cl)cc1)Nc1ccc(S(=O)(=O)Nc2ccccc2)cc1 | -7% | 0.71
CC(C)Cc1cc(C(=O)N2C[C@@H](F)C[C@H]2CNC(=O)N2CCCC2)on1 | 2% | -0.34
CC(C)n1nc(CC(N)=O)nc1-c1ccc(S(C)(=O)=O)cc1 | 2% | -0.36
Cc1cc(CN(C)CC2(O)CCOCC2)ccc1N1CCCCC1 | -3% | 0.35
O=S(=O)(c1ccc2c(c1)CCCC2)N1CC(n2nccn2)C1 | 2% | -0.24
COc1ccc(CN2C[C@H]3CC[C@@H](C2)N(C(=O)c2nn(C)cc2Cl)C3)cc1 | -9% | 1.27
Cc1nc(-c2ccncc2C(=O)N2CCN(Cc3ccccc3)CC2)no1 | -12% | 1.14
CN(C)S(=O)(=O)CC1CCOCC1 | 15% | -1.73
CN1CCCC1C1CCCN1C(=O)C1CCCN(c2nccs2)C1 (stereo unspecified) | -12% | 1.25
CCCn1nc(-n2cnnc2)c(NS(=O)(=O)c2ccc(OC)c(OC)c2)c1C | 35% | -4.7
CN(CCN1CCCCC1=O)Cc1cnc(-c2ccc(Cl)cc2)nc1 | -5% | 0.97
Cn1cc(C(NCC(O)C(F)(F)F)C2(CO)CCC2)cn1 (stereo unspecified) | 1% | -0.25
O=C(NC[C@H]1CCCS1(=O)=O)Nc1ccccc1Oc1cc(F)cc(F)c1 | 4% | -0.58
C=CCn1c(=O)[nH]c2c(-c3ccccn3)nsc2c1=O | -4% | 0.53
O=C(Nc1nncs1)C1CCN(S(=O)(=O)c2ccc3c(c2)CCC3)CC1 | -7% | 1.03
c1ccc(COCCCc2nc(Cn3ccnn3)no2)cc1 | -9% | 1.62
CCCN(C)C(=O)c1ccc(-c2ccc3c(c2)OCO3)s1 | -16% | 1.54
CC(CC(=O)NCC(O)c1ccccc1)NC(=O)C1CCCC1 (stereo unspecified) | -7% | 1.3
COC[C@H]1C[C@@H](O)CN1C(=O)NCc1ccc(NC(C)=O)cc1 | 1% | -0.2
Cn1nc(NC(=O)c2ccccc2)c2c1CCN(C(=O)C1CCOCC1)C2 | -18% | 1.57
O=C(NCc1ccccn1)[C@@H]1CC=CCC1 | -11% | 1.29

Compound | % Inhibition | Z score
COc1ccc(-n2ncc(Oc3cccc(C)c3)c(Nc3cccc(C(=O)NCc4ccncc4)c3)c2=O)cc1 | 13% | -1.82
CC(C)Oc1cc(CNc2cc(-n3cccn3)nc(N)n2)ccn1 | -18% | 1.94
CC(C)(C)n1ncc2c1NC(=O)C[C@@H]2c1c(F)cccc1F | 27% | -3.08
Cc1nonc1CNC(=O)c1cccc(CN2CCCCCC2)c1 | -1% | 0.17
COc1cccc(NC(=O)Nc2ccc3c(c2)N(S(C)(=O)=O)CC3)c1 | -3% | 0.54
Cc1ncc(CO)c(CN2CC[C@@](O)(c3ccccc3)[C@H]3CCCC[C@@H]32)c1O | -1% | 0.08
Cc1cc(S(=O)(=O)N(C)CCn2cccn2)c(C)s1 | 2% | -0.23
COc1ccc(/C=C/CN2CCCN([C@H]3COC[C@@H]3O)CC2)cc1 | -17% | 3.47
C=CCNC(=O)N1CCc2nc(N3CCC(C)CC3)nc(Oc3ccccc3OC)c2C1 | -14% | 1.46
O=C(NCc1ccc(C(=O)O)o1)c1ccc2cccc(Cl)c2n1 | -24% | 2.57
C[C@@H](Cc1ccsc1)N(C)c1ncc(S(N)(=O)=O)s1 | -17% | 1.77
Cc1ccc(-c2cc(C(=O)N3CCN(c4ccc(Cl)cc4)CC3)c(C)[nH]2)cc1 | -14% | 1.8
CCOC(=O)Cc1csc(NC(=O)CCc2c[nH]c3ccccc23)n1 | -18% | 2.77
CO[C@@H](CNC(=O)N(C)Cc1nnc[nH]1)c1ccccc1 | -12% | 1.18
O=C(c1csc(S(=O)(=O)N[C@H]2CCCc3ccccc32)c1)N1CCCC1 | -14% | 1.45
O=C(NCc1ccccc1C(F)(F)F)[C@H]1CCCN(c2ncnc3c2oc2ccccc23)C1 | -14% | 1.75
Cc1ccc2c(C(=O)N3CC4(CCOCC4)C3)csc2c1 | -1% | 0.19
COCc1noc(-c2ccc3ncccc3c2)n1 | 12% | -1.71
CC(C)N(C)CC1CCN(C(=O)[C@@H](C(=O)O)C2CCCC2)CC1 | -14% | 1.84
NC(=O)NCCN1CCc2onc(C(c3ccccc3)c3ccccc3)c2C1 | 12% | -1.43
Cc1cc(N2CCCN(c3ccc(C#N)cc3)CC2)nc(N)n1 | -3% | 0.23

Compound | % Inhibition | Z score
COc1ccc(N2CCN(CC3=Nc4ccccc4S(=O)(=O)N3)CC2)cc1 | -10% | 1.49
Cc1cnc(CCNC(=O)NC(C)C)n1C1CCCCCCC1 | -5% | 0.77
COc1ccccc1C(=O)NC1=NN2C(=NC(c3ccc(Cl)cc3)=C[C@H]2c2ccccc2)N1 | -8% | 0.83
CN(C)C(=O)O[C@H]1CCN(C(=O)Cc2ccn(CC(F)(F)F)n2)C1 | -8% | 0.99
O=C1NCCOCCCN(S(=O)(=O)c2cccc3nsnc23)[C@H]2CCC[C@@H]12 | -6% | 0.83
COc1ccc(OC)c2c1cc(C(=O)Nc1nc(C)c(C)s1)n2C | -5% | 0.75
COc1ncnc(OC)c1C(=O)N1CCC[C@H]1C=Cc1ccccc1 | 30% | -4.38
CN(C(=O)CCc1ccccc1O)C1CCCC1S(C)(=O)=O (stereo unspecified) | 0% | 0.05
CC1(CC(F)(F)F)CN(C(=O)Nc2cccnc2-c2ccco2)C1 | -11% | 2.04
O=S(=O)(c1ccc(N2CCC(Cc3ccccc3)CC2)nc1)N1CCCC1 | -33% | 3.86
c1ccc(CNCC[C@H]2CCCOC2)cc1 | -9% | 0.94
CCC[C@H](Nc1nc(-c2ccccc2)nc2c1CCNC2)c1nccn1C | -9% | 1.3
CCOC(C)C(=O)Nc1ccc(NC(=O)C(C)OCC)c(OC)c1 (stereo unspecified) | 3% | -0.4
O=C1CO[C@@H](CNc2nc3ccccc3o2)CN1CC1CCN(CC2CC2)CC1 | 0% | 0.08
CCOC1CC(NC(=O)NC2CC2)C12CCCC2 (stereo unspecified) | -8% | 1.16
Cn1cc([C@H]2OCC[C@@H]2NC(=O)NC2CC23CCOCC3)cn1 (stereo partly specified) | -5% | 0.53
COCCN1CCC(NC(=O)NC(c2ncccc2C)C(C)C)C1 (stereo unspecified) | -7% | 1.38
O=C(NCCOc1ccc2c(c1)OCO2)c1ccnc(C2CC2)n1 | -12% | 1.58
COc1ccccc1CC(=O)NCc1nc(C2CCC(F)(F)CC2)no1 | -11% | 1.35
O=C(NCc1ccco1)NCC1CCOCC1 | 0% | 0.04
Cc1ccc(-n2nnnc2N(C)Cc2nnc3ccccn23)cc1 | -5% | 0.94

Compound | % Inhibition | Z score
CCS(=O)(=O)N1CCC[C@H](Oc2cc(C)nc(C)n2)C1 | 5% | -0.63
O=C(O)[C@H]1CN(C(=O)C2(N3CCCC3)CCCCC2)C[C@@H]1c1cccnc1 | -10% | 1.2
O=C(NCc1ccccc1F)c1nn(-c2ccccn2)c2nccc(-c3cccs3)c12 | -9% | 1.56
Cc1cc(F)ccc1S(=O)(=O)N1CCC[C@H](Oc2cc(C#N)ccn2)C1 | 5% | -0.66
COc1cccc(CNC(=O)c2c(C)noc2-c2cccnc2)c1 | -8% | 0.82
CCOCc1nc2c(c(N3CC=CCC3)n1)CCN(CCN)CC2 | 0% | 0.01
CC(C)[C@H]1C(=O)NCCN1C(=O)c1cc(C(F)(F)F)n[nH]1 | -9% | 1.82
Cn1nc(-c2ccccc2)nc1C1CN(C(=O)NC[C@H]2CCCO2)C1 | 28% | -3.81
O=C(NCC1(C(F)(F)F)CCC1)c1occ2c1CCC2 | -11% | 0.91
C[C@H]1c2ccc(Cl)n2CCN1C(=O)CCc1ccc(=O)[nH]c1 | -3% | 0.55
CC(C)(C)c1cc(C(=O)N2C[C@@H]3[C@@H]4CC[C@@H](C4)[C@@H]3C2)[nH]c(=O)n1 | -13% | 1.58
Cc1ccc(-n2nc(-c3noc(CCC(=O)N[C@@H](C)CCc4ccccc4)n3)c(=O)n(C)c2=O)cc1 | 8% | -1.38
Cc1ccc(C(=O)NCc2ccc(N3CCNC(=O)C3)cc2)n1C | -4% | 0.47
O=C(Cn1cnc2ccccc21)N1CCC[C@H](Oc2cccnn2)C1 | -9% | 1.03
O=C(Nc1ccc(F)cc1)c1nnc(C(=O)N2CCC(C(=O)NCCN3CCCC3)CC2)s1 | -15% | 1.3
COc1ccc(-n2ncc3c2CC(C)(C)C[C@@H]3NS(=O)(=O)C2CC2)cc1 | -9% | 1.43
O=c1ccn(Cc2nnc(-c3ccc(Cl)cc3)o2)c2ccsc12 | -7% | 0.78
C=CCNCCOc1ccc(Cl)c(Cl)c1 | -6% | 0.83
O=C(CN1CCOCC1)N1CCN(C(=O)c2cc3ccccc3s2)CC1 | 2% | -0.37
CCN(CC)C(=O)c1cn(C[C@H]2CCCN(C(=O)c3cc(OC)ccc3OC)C2)nn1 | -13% | 2.67
